The record followed here is paper PMC6018503.

Amino acid sequences for entries named in this document (tags omitted). A change or cut given only in a name is not applied to a line headed by its entry.
UniProt Q9FXM3: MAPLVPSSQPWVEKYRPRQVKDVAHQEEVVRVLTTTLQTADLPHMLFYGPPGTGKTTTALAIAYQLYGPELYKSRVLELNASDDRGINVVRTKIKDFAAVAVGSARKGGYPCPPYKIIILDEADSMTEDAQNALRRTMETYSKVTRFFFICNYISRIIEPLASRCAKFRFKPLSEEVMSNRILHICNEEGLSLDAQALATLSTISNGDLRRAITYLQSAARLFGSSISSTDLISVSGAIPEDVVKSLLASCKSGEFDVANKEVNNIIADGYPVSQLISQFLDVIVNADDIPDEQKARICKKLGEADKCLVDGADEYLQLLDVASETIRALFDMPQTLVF

The target of experiment [1] is T1, OsRFC5 (rice (Oryza sativa)) (UniProt Q852K3).
T1 sequence: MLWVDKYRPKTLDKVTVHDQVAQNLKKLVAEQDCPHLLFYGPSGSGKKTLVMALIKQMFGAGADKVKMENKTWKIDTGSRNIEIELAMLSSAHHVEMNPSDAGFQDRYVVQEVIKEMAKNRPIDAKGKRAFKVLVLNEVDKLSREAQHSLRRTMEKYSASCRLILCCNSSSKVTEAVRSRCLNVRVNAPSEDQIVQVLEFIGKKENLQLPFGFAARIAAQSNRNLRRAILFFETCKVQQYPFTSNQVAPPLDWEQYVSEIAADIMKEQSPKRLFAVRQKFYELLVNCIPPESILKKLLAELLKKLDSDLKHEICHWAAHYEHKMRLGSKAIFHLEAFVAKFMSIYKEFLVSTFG
Kind of experiment: split reporter; BiFC; YFP^N (aa 1-155) and YFP^C (aa 156-239) fusions (pCAMBIA-SPYNE, pCAMBIA-SPYCE) co-expressed in tobacco (Nicotiana benthamiana) leaf epidermal cells through Agrobacterium GV3101; confocal microscopy of YFP; only the two named fusions.

For experiment [2], the target named is T2, OsRFC1 (rice (Oryza sativa)) (UniProt Q2R2B4).
T2 sequence: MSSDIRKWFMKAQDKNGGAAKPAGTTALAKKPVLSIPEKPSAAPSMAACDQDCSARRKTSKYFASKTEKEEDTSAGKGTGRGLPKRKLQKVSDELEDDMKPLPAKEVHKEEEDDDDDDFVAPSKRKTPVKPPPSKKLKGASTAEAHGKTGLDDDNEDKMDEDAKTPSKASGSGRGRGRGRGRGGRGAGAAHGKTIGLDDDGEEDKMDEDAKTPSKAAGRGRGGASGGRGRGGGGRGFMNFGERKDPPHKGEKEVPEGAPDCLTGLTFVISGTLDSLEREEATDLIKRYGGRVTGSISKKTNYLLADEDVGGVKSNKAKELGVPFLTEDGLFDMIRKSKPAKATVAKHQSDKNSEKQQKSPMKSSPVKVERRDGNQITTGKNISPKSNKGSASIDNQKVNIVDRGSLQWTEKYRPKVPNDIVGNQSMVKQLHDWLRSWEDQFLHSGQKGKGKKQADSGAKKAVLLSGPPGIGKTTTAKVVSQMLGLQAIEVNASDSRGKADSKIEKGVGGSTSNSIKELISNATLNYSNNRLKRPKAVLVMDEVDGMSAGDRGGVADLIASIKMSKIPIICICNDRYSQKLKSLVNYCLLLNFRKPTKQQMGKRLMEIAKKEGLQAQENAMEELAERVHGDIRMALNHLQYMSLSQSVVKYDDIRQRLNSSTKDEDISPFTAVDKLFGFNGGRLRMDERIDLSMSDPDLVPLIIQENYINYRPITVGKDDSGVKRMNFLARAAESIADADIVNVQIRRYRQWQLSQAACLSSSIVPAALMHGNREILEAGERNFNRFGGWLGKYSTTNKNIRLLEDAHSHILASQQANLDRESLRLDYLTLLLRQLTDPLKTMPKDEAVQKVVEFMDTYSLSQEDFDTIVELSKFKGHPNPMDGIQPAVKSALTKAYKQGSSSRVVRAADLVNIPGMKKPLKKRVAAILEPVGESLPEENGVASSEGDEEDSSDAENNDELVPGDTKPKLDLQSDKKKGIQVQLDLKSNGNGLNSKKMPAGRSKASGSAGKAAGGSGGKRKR
The description is as above.

Experiment [3] deals with T3, OsRFC3 (rice (Oryza sativa)) (UniProt Q6YZ54).
T3 sequence: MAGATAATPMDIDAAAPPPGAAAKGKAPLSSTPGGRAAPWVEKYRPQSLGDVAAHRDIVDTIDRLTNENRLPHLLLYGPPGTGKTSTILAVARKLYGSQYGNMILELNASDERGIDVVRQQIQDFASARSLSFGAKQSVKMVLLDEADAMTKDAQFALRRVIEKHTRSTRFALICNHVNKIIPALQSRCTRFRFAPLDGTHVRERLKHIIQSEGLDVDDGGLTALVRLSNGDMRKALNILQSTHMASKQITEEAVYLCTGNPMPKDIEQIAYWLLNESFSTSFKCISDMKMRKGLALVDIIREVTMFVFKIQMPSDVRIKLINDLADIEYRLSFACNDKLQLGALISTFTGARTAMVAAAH
The description is as above.

Experiment [4] has as its target AtRFC4 (Arabidopsis thaliana) (UniProt Q93ZX1). Described as above.
Experiment [5] deals with T4, AtRFC1 (Arabidopsis thaliana) (UniProt Q9C587).
T4 sequence: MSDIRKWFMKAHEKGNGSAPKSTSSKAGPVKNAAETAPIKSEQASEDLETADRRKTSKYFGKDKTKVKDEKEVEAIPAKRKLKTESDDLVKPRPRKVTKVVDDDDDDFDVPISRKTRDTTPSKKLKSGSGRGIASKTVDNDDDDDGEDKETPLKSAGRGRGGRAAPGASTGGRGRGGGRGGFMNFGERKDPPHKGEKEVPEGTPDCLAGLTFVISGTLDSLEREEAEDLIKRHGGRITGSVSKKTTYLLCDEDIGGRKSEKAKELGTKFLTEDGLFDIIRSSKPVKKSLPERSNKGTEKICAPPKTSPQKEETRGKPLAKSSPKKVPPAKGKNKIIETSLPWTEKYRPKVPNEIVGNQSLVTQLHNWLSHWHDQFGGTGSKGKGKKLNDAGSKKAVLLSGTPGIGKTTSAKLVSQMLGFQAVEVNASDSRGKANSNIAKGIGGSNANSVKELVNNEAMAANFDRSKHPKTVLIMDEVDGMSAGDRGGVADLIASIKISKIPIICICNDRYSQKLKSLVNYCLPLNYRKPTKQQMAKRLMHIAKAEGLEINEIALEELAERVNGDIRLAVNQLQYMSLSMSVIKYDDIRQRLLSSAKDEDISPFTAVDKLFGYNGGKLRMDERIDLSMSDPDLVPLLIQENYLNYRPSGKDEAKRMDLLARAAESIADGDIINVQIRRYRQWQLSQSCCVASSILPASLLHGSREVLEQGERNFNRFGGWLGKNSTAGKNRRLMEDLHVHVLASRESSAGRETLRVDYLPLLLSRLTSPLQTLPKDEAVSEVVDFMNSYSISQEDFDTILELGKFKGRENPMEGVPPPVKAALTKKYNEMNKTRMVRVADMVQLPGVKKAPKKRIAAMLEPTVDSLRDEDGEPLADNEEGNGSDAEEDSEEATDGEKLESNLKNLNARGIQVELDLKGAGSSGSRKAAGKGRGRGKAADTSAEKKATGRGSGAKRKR
Description: split reporter; BiFC in tobacco leaf epidermal cells with truncated AtRFC proteins, pairs that include AtRFC1 or a truncated AtRFC1; whether the other small subunits were co-expressed is not said.

The target in experiment [6] is T5, AtRFC2 (Arabidopsis thaliana) (UniProt Q9CAM7).
T5 sequence: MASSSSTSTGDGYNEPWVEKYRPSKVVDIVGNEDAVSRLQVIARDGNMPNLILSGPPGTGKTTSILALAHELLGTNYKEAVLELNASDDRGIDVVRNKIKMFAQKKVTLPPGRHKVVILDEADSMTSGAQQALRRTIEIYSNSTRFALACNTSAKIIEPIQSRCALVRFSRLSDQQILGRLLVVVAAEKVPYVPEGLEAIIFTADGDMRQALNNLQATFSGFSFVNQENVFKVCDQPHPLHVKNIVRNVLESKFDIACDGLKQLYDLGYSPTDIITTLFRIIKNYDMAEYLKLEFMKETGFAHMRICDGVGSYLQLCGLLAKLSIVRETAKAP
Description: split reporter; BiFC; YFP^N (aa 1-155) and YFP^C (aa 156-239) fusions (pCAMBIA-SPYNE, pCAMBIA-SPYCE) co-expressed in tobacco (Nicotiana benthamiana) leaf epidermal cells through Agrobacterium GV3101; confocal microscopy of YFP; only the two named fusions.

The target in experiment [7] is T6, AtRFC5 (Arabidopsis thaliana) (UniProt Q8VXX4).
T6 sequence: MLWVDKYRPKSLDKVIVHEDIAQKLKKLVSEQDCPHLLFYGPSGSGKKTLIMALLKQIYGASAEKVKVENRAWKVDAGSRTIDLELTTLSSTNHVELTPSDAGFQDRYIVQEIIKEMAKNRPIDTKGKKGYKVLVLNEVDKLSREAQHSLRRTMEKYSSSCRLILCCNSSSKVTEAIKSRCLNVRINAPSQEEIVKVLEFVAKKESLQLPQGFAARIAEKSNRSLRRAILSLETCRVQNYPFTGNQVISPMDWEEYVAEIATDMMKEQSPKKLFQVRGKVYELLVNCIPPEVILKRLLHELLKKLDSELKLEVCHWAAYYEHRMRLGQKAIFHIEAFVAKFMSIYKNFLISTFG
The experiment is described as above.

These are yes or no findings as the source states them, for the method shown. In cells and extracts the contact can be indirect. Some results given as binding are weak or reduced against the parent protein; the word gives no strength.

For “OsRFC2 Δ300–339 (from UniProt Q9FXM3 1-299) (domain or fragment)”, the binding result was “no binding” in experiment [1], “no binding” in experiment [2] and “binds” in experiment [3].

With “OsRFC2 Δ240–339 (from UniProt Q9FXM3 1-239) (domain or fragment)”, the binding entry in experiment [1], in experiment [2] and in experiment [3] was “no binding” each time.

For the molecule “OsRFC2 Δ320–339 (from UniProt Q9FXM3 1-319) (domain or fragment)”, the binding entry in experiment [1] is listed as “no binding”; in experiment [2], “binds”; in experiment [3] it was “binds”.

B1: AtRFC2 Δ314–333 (domain or fragment, UniProt Q9CAM7 1-313)
chain: MASSSSTSTGDGYNEPWVEKYRPSKVVDIVGNEDAVSRLQVIARDGNMPNLILSGPPGTGKTTSILALAHELLGTNYKEAVLELNASDDRGIDVVRNKIKMFAQKKVTLPPGRHKVVILDEADSMTSGAQQALRRTIEIYSNSTRFALACNTSAKIIEPIQSRCALVRFSRLSDQQILGRLLVVVAAEKVPYVPEGLEAIIFTADGDMRQALNNLQATFSGFSFVNQENVFKVCDQPHPLHVKNIVRNVLESKFDIACDGLKQLYDLGYSPTDIITTLFRIIKNYDMAEYLKLEFMKETGFAHMRICDGVGSY
Turning to B1, the binding entry was “binds” in experiment [4] and “no binding” in experiment [5].

B2: AtRFC5 Δ335–354 (domain or fragment, UniProt Q8VXX4 1-334)
chain: MLWVDKYRPKSLDKVIVHEDIAQKLKKLVSEQDCPHLLFYGPSGSGKKTLIMALLKQIYGASAEKVKVENRAWKVDAGSRTIDLELTTLSSTNHVELTPSDAGFQDRYIVQEIIKEMAKNRPIDTKGKKGYKVLVLNEVDKLSREAQHSLRRTMEKYSSSCRLILCCNSSSKVTEAIKSRCLNVRINAPSQEEIVKVLEFVAKKESLQLPQGFAARIAEKSNRSLRRAILSLETCRVQNYPFTGNQVISPMDWEEYVAEIATDMMKEQSPKKLFQVRGKVYELLVNCIPPEVILKRLLHELLKKLDSELKLEVCHWAAYYEHRMRLGQKAIFHI
In the case of B2, the binding result in experiment [4] and in experiment [5] was “no binding” in each case.

B3: AtRFC2 Δ294–333 (domain or fragment, UniProt Q9CAM7 1-293)
chain: MASSSSTSTGDGYNEPWVEKYRPSKVVDIVGNEDAVSRLQVIARDGNMPNLILSGPPGTGKTTSILALAHELLGTNYKEAVLELNASDDRGIDVVRNKIKMFAQKKVTLPPGRHKVVILDEADSMTSGAQQALRRTIEIYSNSTRFALACNTSAKIIEPIQSRCALVRFSRLSDQQILGRLLVVVAAEKVPYVPEGLEAIIFTADGDMRQALNNLQATFSGFSFVNQENVFKVCDQPHPLHVKNIVRNVLESKFDIACDGLKQLYDLGYSPTDIITTLFRIIKNYDMAEYLKL
As to B3, the binding entry in experiment [4] and in experiment [5] was “no binding” in each case.

B4: AtRFC4 Δ1–213 (domain or fragment, UniProt Q93ZX1 214-339)
chain: ITYLQSATRLFGSTITSTDLLNVSGVVPLEVVNKLFTACKSGDFDIANKEVDNIVAEGYPASQIINQLFDIVAEADSDITDMQKAKICKCLAETDKRLVDGADEYLQLLDVASSTICALSEMAQDF
With B4, the binding entry in experiment [6] and in experiment [7] was “binds” throughout.
